16 compounds from the supplement of paper PMC10037445 can be followed below.

Assay [1] relates to RAW-Dual. The assay is described as follows: NF-kB SEAP reporter activity, fold change vs agonist alone; cytotoxicity flag (confluency mask): not cytotoxic; higher = enhanced NF-kB activity. The essentials: (§1)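 Library stock was pin-tooled at 50 nL into 384-well plates of RAW-Dual macrophages (50,000 cells/well, DMEM), followed 1 h later by a PRR agonist, and the cells were kept at 37 °C, 5% CO2. Supernatant collected after 20 hours was read for IRF by QuantiLuc luminescence and for NF-κB by QuantiBlue absorbance at 620 nm. Reporter activity is fold change over agonist-alone wells, and a well counted as cytotoxic when its IncuCyte confluency was below 70% of agonist controls in both mask sets.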

The subject of assay [2] is RAW-Dual. In words: NF-kB SEAP reporter activity, fold change vs agonist alone; higher = enhanced NF-kB activity. As to conditions: cytotoxicity flag (confluency mask): not cytotoxic. The essentials: as §1
Where [3] appears, read: agonist: ODN 1826 (TLR9) 0.5 ug/mL.
The mark [4] stands for this setting: agonist: Pam2CSK4 (TLR2/6) 0.1 ug/mL.
[5] abbreviates: agonist: Pam3CSK4 (TLR2/1) 0.1 ug/mL.
The mark [6] stands for this setting: library stock concentration (final ~1000-fold dilution): 10 mM, agonist: Imiquimod (TLR7) […].
[7] abbreviates: library stock concentration (final ~1000-fold dilution): 10 mM, agonist: MPLA (TLR4) […].

Whole data set: some 2,900 compounds, median “NF-kB SEAP reporter activity, fold change vs agonist alone” near 0.99, cut for the highest 2% near 2.6. This is one part of the list.

`Cn1cc(-c2cnn3c(N)c(Br)c(C4CCCNC4)nc23)cn1` (configuration not stated) (library stock concentration (final ~1000-fold dilution): 2 mM): the “NF-kB SEAP reporter activity” value was 1.31 in the assay with RAW-Dual [1] (agonist: LPS (TLR4) 0.1 ug/mL), 1.04 in the assay with RAW-Dual [1] (setting [3]), 1.04 in the assay on RAW-Dual [1] (setting [4]) and 1.19 in the assay on RAW-Dual [1] (setting [5]).
With `Cn1cc(-c2cnn3c(N)c(Br)c(C4CCCNC4)nc23)cn1` (configuration not stated), the “NF-kB SEAP reporter activity” value stood at 1.09 in the assay on RAW-Dual [2] (library stock concentration (final ~1000-fold dilution): 2 mM, agonist: Imiquimod (TLR7) […]) and 1.35 in the assay with RAW-Dual [2] (library stock concentration (final ~1000-fold dilution): 2 mM, agonist: MPLA (TLR4) […]).
For `Cc1coc2c1C(=O)C(=O)c1c-2ccc2c(C)cccc12` (library stock concentration (final ~1000-fold dilution): 10 mM), the “NF-kB SEAP reporter activity” value with RAW-Dual [1] (agonist: LPS (TLR4) 0.1 ug/mL) amounted to 0.723; with RAW-Dual [1] (setting [3]), 0.793; in the assay on RAW-Dual [1] (setting [4]), 0.955; with RAW-Dual [1] (setting [5]), 0.996.
With `Cc1coc2c1C(=O)C(=O)c1c-2ccc2c(C)cccc12`, the “NF-kB SEAP reporter activity” value in the assay on RAW-Dual [2] (setting [6]) turned out to be 0.814; with RAW-Dual [2] (setting [7]) it was 0.87.
Regarding `CCC(C)SSc1ncc[nH]1` (configuration not stated) (library stock concentration (final ~1000-fold dilution): 10 mM), the “NF-kB SEAP reporter activity” value in the assay on RAW-Dual [1] (agonist: LPS (TLR4) 0.1 ug/mL) was determined as 4.74; with RAW-Dual [1] (setting [3]), 2.67; in the assay with RAW-Dual [1] (setting [4]) it was 1.44; with RAW-Dual [1] (setting [5]), 2.7.
In the case of `CCC(C)SSc1ncc[nH]1` (configuration not stated), the “NF-kB SEAP reporter activity” value with RAW-Dual [2] (setting [6]) is 1.51; in the assay on RAW-Dual [2] (setting [7]), 1.85.
Turning to `COc1cc(Nc2nc3ccccc3nc2NS(=O)(=O)c2ccc(NC(=O)c3ccc(C)c(OC)c3)cc2)cc(OC)c1`, the “NF-kB SEAP reporter activity” value in the assay on RAW-Dual [2] (setting [6]) was 0.914; in the assay on RAW-Dual [2] (setting [7]) it was 0.963.
Turning to `COc1cc(Nc2nc3ccccc3nc2NS(=O)(=O)c2ccc(NC(=O)c3ccc(C)c(OC)c3)cc2)cc(OC)c1` (library stock concentration (final ~1000-fold dilution): 10 mM), the “NF-kB SEAP reporter activity” value with RAW-Dual [1] (agonist: LPS (TLR4) 0.1 ug/mL) stood at 2.08; in the assay with RAW-Dual [1] (setting [3]), 1.04; in the assay on RAW-Dual [1] (setting [4]), 0.51; in the assay with RAW-Dual [1] (setting [5]), 0.561.
For `CC1CCN(CCC2CCCN2S(=O)(=O)c2cccc(O)c2)CC1.Cl` (configuration not stated) (library stock concentration (final ~1000-fold dilution): 10 mM), in that order: 0.989, 0.894, 1.02 and 1.11.
In the case of `CC1CCN(CCC2CCCN2S(=O)(=O)c2cccc(O)c2)CC1.Cl` (configuration not stated), the “NF-kB SEAP reporter activity” value in the assay on RAW-Dual [2] (setting [6]) amounted to 1.07; with RAW-Dual [2] (setting [7]), 1.08.
Regarding `O=C1CCc2cc(OCCCCc3nnnn3C3CCCCC3)ccc2N1` (library stock concentration (final ~1000-fold dilution): 10 mM), the “NF-kB SEAP reporter activity” value was 1.27 in the assay on RAW-Dual [1] (agonist: LPS (TLR4) 0.1 ug/mL), 1.31 with RAW-Dual [1] (setting [3]), 1.11 in the assay on RAW-Dual [1] (setting [4]) and 1.29 with RAW-Dual [1] (setting [5]).
Regarding `O=C1CCc2cc(OCCCCc3nnnn3C3CCCCC3)ccc2N1`, the “NF-kB SEAP reporter activity” value came to 0.931 in the assay on RAW-Dual [2] (setting [6]) and 1.12 in the assay on RAW-Dual [2] (setting [7]).
Regarding `CCN1CC(CCN2CCOCC2)C(c2ccccc2)(c2ccccc2)C1=O` (configuration not stated) (library stock concentration (final ~1000-fold dilution): 10 mM), the “NF-kB SEAP reporter activity” value with RAW-Dual [1] (agonist: LPS (TLR4) 0.1 ug/mL) was determined as 1.08; in the assay on RAW-Dual [1] (setting [3]), 0.914; in the assay on RAW-Dual [1] (setting [4]), 1.01; in the assay with RAW-Dual [1] (setting [5]), 0.891.
Turning to `CCN1CC(CCN2CCOCC2)C(c2ccccc2)(c2ccccc2)C1=O` (configuration not stated), the “NF-kB SEAP reporter activity” value in the assay with RAW-Dual [2] (setting [7]) was determined as 1.11.
Consider `CCCC1CC(C(=O)NC(C(C)Cl)C2OC(SC)C(O)C(O)C2O)N(C)C1.Cl` (configuration not stated) (library stock concentration (final ~1000-fold dilution): 10 mM), for which the “NF-kB SEAP reporter activity” value in the assay on RAW-Dual [1] (agonist: LPS (TLR4) 0.1 ug/mL) came out at 1.11; with RAW-Dual [1] (setting [3]) it was 1.04; with RAW-Dual [1] (setting [4]), 1.06; in the assay with RAW-Dual [1] (setting [5]), 1.08.
Consider `CCCC1CC(C(=O)NC(C(C)Cl)C2OC(SC)C(O)C(O)C2O)N(C)C1.Cl` (configuration not stated), for which the entries for the “NF-kB SEAP reporter activity” value in the assay with RAW-Dual [2] (setting [6]) and with RAW-Dual [2] (setting [7]) were 0.95 and 1.06, respectively.
